Assay results published in PubChem BioAssay (Tox21).
Inconclusive means that the source gave no clear call. Such entries were picked first, then a sample of the others. A potency beside an inconclusive call is a rough fit, not a confirmed value. Active and inactive are the calls of the source. Unless noted, calls follow the shape of the dose curve; as a rule, active = well fitted curve in the direction sought with a large enough effect in the repeat runs; inconclusive = weak or mixed curves; inactive = no such curve, though single readings can be large; an effect the other way counts as inactive or inconclusive.

Test system: not listed separately
Test: qHTS assay to identify small molecule agonists of the constitutive androstane receptor (CAR) signaling pathway - cell viability counter screen (AID 1224836); also: nearly all actives have a fitted effect of over 45% in size; as to viability change, negative = cytotoxic: % is scaled to controls: 0 for no effect and ±100 for the full control effect
Details: HepG2-CYP2B6-hCAR viability, CellTiter-Fluor, 23 h, PK11195 added to every well; series mostly up to 92.4 µM
Summary of the method: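 Using CellTiter-Fluor, viability of HepG2 cells harbouring hCAR and CYP2B6-2.2kb was measured following 23 h incubation with a 15-concentration compound series plus PK11195 (0.75 uM final).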
Potency is read from the fitted curve at half-maximal effect; tags tell the direction and shape of the fitted curve.

SMILES	Potency	viability change, negative = cytotoxic
O=C1NCCN1CCN1CCC(c2cn(-c3ccc(F)cc3)c3ccc(Cl)cc23)CC1	active: 11.9 µM	
O=C1OC2(c3ccc(O)cc3Oc3cc(O)ccc32)c2ccc(N=C=S)cc21	inconclusive: 62.3 µM [rising, partial curve]	
COc1cc(C(C)(C)C)c(O)c(C(C)(C)C)c1	inactive	
CN(Cc1cc(Br)cc(Br)c1N)C1CCCCC1	inactive	
Nc1nnc(-c2ccc([N+](=O)[O-])o2)o1	active: 30.6 µM	
COC(=O)c1cc(S(N)(=O)=O)ccc1OC	inactive	
O=Cc1cc(O)ccc1Br	inactive	
COC1=C(OC)C(=O)C(CCCCCCCCCCO)=C(C)C1=O	inactive	
O=C1OC2(c3ccccc31)c1cc(I)c(O)c(I)c1Oc1c2cc(I)c(O)c1I	active: 15.5 µM [middle of 4 runs]	
CC1(C)O[C@@H]2C[C@H]3[C@@H]4CCC5=CC(=O)CC[C@]5(C)[C@@]4(F)[C@@H](O)C[C@]3(C)[C@]2(C(=O)CCl)O1	inconclusive: 13.3 µM [cytotoxic, single point]	
OC[C@]1(O)OC[C@@H](O)[C@H](O)[C@@H]1O	inconclusive: 13.3 µM [cytotoxic, single point]	
Cc1cccc(C(C)(C)C)c1O	inactive	
CC(=O)CC(=O)Nc1ccccc1C	inactive	
O=C(N/N=C/c1ccccc1O)c1ccncc1	inactive	
C=CC(=O)OCCOCCOCC	inactive	
CN(C)CCOC(C)(c1ccccc1)c1ccccn1 (configuration not stated)	inactive	
CN(C)c1ccc(C=O)cc1	inactive	
CC[C@@H]1C[C@H](N(Cc2cc(C(F)(F)F)cc(C(F)(F)F)c2)C(C)=O)c2cc(C(F)(F)F)ccc2N1C(=O)OC(C)C	inconclusive: 7.7 µM [rising, partial curve, poor fit]	
Cc1cc(C)c(N=Nc2c(O)c(S(=O)(=O)O)cc3cc(S(=O)(=O)O)ccc23)cc1C		inactive: -15.6% [at 8.39 µM]
Cc1occc1S	inactive	

Test system: not listed separately
Test: qHTS assay to identify small molecule antagonists of the constitutive androstane receptor (CAR) signaling pathway - cell viability counter screen (AID 1224837); also: nearly all actives have a fitted effect of over 45% in size; as to activity change, negative = cytotoxicity: % is scaled to controls: 0 for no effect and ±100 for the full control effect
Details: HepG2-CYP2B6-hCAR viability, CellTiter-Fluor, 23 h, co-treated with 50 nM CITCO; series mostly up to 92.4 µM
Summary of the method: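 To flag cytotoxic false antagonists, HepG2 hCAR/CYP2B6-2.2kb cells were treated 23 hr with 15-concentration compound series and 50 nM CITCO at 37 C/5% CO2; CellTiter-Fluor fluorescence was the measured end point.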

SMILES	Potency	activity change, negative = cytotoxicity
N=C1C=CC(=C(c2ccc(N)cc2)c2ccc(N)cc2)C=C1	active: 27.3 µM	
C[C@](N)(Cc1ccc(O)cc1)C(=O)O		inactive: 2.5% [at 8.39 µM]
C=CC(=O)OCCOCC(CC)(COCCOC(=O)C=C)COCCOC(=O)C=C	active: 31.9 µM	
CCN(CC)C(C)=O	inactive	
O=C(OCC(COC(=O)c1ccccc1)(COC(=O)c1ccccc1)COC(=O)c1ccccc1)c1ccccc1	inactive	
CN(C)C(=N)N=C(N)N	inactive	
Cc1c(-c2cccnc2)c2ccccc2n1CCCCC(=O)O	inactive	
CCCC(C(=O)OCCN(CC)CC)(c1ccccc1)c1ccccc1	inconclusive: 33.5 µM [cytotoxic, partial curve, poor fit]	
CCc1cccc2c(CCO)c[nH]c12	inactive	
C[C@H](CN1CCCC1)C(=O)c1ccc(C(F)(F)F)cc1	inconclusive: 33.5 µM [cytotoxic, partial curve, poor fit]	
C1CCC(SSC2CCCCC2)CC1	inactive	
O=c1[nH]cnc2c1ncn2[C@@H]1O[C@H](CO)[C@@H](O)[C@H]1O	inactive	
Cc1ccc2oc(CN(Cc3ccccc3)C(=O)Nc3c(F)cc(F)cc3F)c(-c3ccc(Cl)cc3)c2c1	inactive	
C=C[C@](C)(O)CC[C@@H]1[C@@]2(C)CCCC(C)(C)[C@@H]2CC[C@@]1(C)O	inconclusive: 61.1 µM [cytotoxic]	
C#C[C@]1(O)CC[C@H]2[C@@H]3CCc4cc(OC5CCCC5)ccc4[C@H]3CC[C@@]21C	inconclusive: 33.5 µM [cytotoxic, single point]	
Cc1c(C(=O)O)cccc1[N+](=O)[O-]	inactive	
O=NN(CCCl)C(=O)NCCCl	inactive	
CCCCN(CCCC)CC(O)c1cc(Cl)cc2c1-c1ccc(Cl)cc1/C2=C/c1ccc(Cl)cc1 (configuration not stated)	inconclusive: 33.5 µM [cytotoxic]	

Molecular target: Nuclear receptor subfamily 1 group I member 3 (Homo sapiens) (UniProt Q14994)
Chain of UniProt Q14994 (Q14994 whole entry, looked up): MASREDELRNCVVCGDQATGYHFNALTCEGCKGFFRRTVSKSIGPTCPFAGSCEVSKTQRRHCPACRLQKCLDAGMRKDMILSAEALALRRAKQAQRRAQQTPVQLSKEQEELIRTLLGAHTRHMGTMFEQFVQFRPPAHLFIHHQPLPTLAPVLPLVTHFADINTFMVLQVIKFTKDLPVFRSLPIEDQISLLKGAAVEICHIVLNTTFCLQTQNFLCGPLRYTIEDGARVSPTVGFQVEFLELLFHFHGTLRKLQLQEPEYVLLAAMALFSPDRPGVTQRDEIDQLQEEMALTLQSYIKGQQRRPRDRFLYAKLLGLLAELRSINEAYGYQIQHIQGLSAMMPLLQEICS
Test: qHTS assay to identify small molecule agonists of the constitutive androstane receptor (CAR) signaling pathway (AID 1224839); also: nearly all actives have a fitted effect of over 15% in size
Details: HepG2 hCAR CYP2B6-luciferase, agonist mode, 24 h; series mostly up to 92.4 µM
Summary of the method: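 Double-stable HepG2 cells (hCAR, CYP2B6-2.2kb) seeded 4 h before compound addition. Exposure 24 h with 0.75 uM PK11195 final. Luciferase detected by ONE-Glo.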

SMILES	Potency
CN(C)C(=N)N=C(N)N	inactive
Cc1c(-c2cccnc2)c2ccccc2n1CCCCC(=O)O	inconclusive: 30.6 µM [activator, partial curve]
C#C[C@]1(O)CC[C@H]2[C@@H]3CCc4cc(OC5CCCC5)ccc4[C@H]3CC[C@@]21C	inconclusive: 29.8 µM [activator, single point]
CCCCN(CCCC)CC(O)c1cc(Cl)cc2c1-c1ccc(Cl)cc1/C2=C/c1ccc(Cl)cc1 (configuration not stated)	inconclusive: 29.8 µM [activator, partial curve, poor fit]

Test system: not listed separately
Test: qHTS assay to identify small molecule antagonists of the estrogen related receptor signaling pathway with the pleiotropic PPARgamma coactivator (PGC) from Tox21 10K library - cell viability counter screen (AID 1224840; active = well fitted cell-killing curve with a large enough effect in the repeat runs, not every such curve was filed as active; inconclusive = weak or mixed curves, or effect the other way; inactive = no such curve, though single readings can be large or run the other way; also: nearly all actives have a fitted effect of over 40% in size)
Details: PGC/ERR reporter cells viability, CellTiter-Fluor, 17.5 h; series mostly up to 92.4 µM
Summary of the method: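 Seeded PGC/ERR cells (2,000/well, 6 h, 37 C/5% CO2) get compound by pin tool; 17.5 h incubation at 37 C; CellTiter-Fluor added, 30 min, fluorescence measured.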

SMILES	Potency
N=C1C=CC(=C(c2ccc(N)cc2)c2ccc(N)cc2)C=C1	inconclusive: 7.7 µM [cytotoxic, full curve, poor fit]
O=C1NCCN1CCN1CCC(c2cn(-c3ccc(F)cc3)c3ccc(Cl)cc23)CC1	inconclusive: 29.8 µM [cytotoxic, partial curve]
C=CC(=O)OCCOCC(CC)(COCCOC(=O)C=C)COCCOC(=O)C=C	active: 16 µM
O=C1OC2(c3ccccc31)c1cc(I)c(O)c(I)c1Oc1c2cc(I)c(O)c1I	active: 16.6 µM [middle of 4 runs]
CCCCN(CCCC)CC(O)c1cc(Cl)cc2c1-c1ccc(Cl)cc1/C2=C/c1ccc(Cl)cc1 (configuration not stated)	inconclusive: 29.8 µM [cytotoxic]
